This is one part of the list. Rule as the data show it: active = 3.2 or more and inactive = the rest. Most of these values are background signal.
B1: PARK2_HUMAN_143_YA (peptide)
chain: SPAGRSIYNSFAVAC
B2: PARP1_HUMAN_907 (peptide)
chain: MVSKSANYCHTSQGD
B3: PAXI_HUMAN_31_YA (peptide)
chain: FLSEETPYSAPTGNH
B4: PB1_HUMAN_1289 (peptide)
chain: KVVDDEIYYFRKPIV
B5: PDCD4_HUMAN_152 (peptide)
chain: DDQENCVYETVVLPL
B6: PDHA1_HUMAN_289 (peptide)
chain: MELQTYRYHGHSMSD
B7: APT_HUMAN_60 (peptide)
chain: THGGRIDYIAGLDSR
B8: PDK1_HUMAN_136 (peptide)
chain: AEDAKAIYDFTDTVI
B9: PDK1_HUMAN_243 (peptide)
chain: ARRLCDLYYINSPEL
B10: PDK1_HUMAN_243_YA (peptide)
chain: ARRLCDLYAINSPEL
B11: PDK2_HUMAN_215 (peptide)
chain: AKLLCDKYYMASPDL
B12: PDK2_HUMAN_215_YA (peptide)
chain: AKLLCDKYAMASPDL
B13: PDK3_HUMAN_211_YA (peptide)
chain: AKMLCEQYALVAPEL
B14: PDPK1_HUMAN_373 (peptide)
chain: SEDDEDCYGNYDNLL
B15: PDPK1_HUMAN_376 (peptide)
chain: DEDCYGNYDNLLSQF
B16: PEAK1_HUMAN_635_YA (peptide)
chain: IVINPNAYDNLAIAK
B17: PEAK1_HUMAN_641 (peptide)
chain: AYDNLAIYKSFLGTS
B18: PEAK1_HUMAN_641_YA (peptide)
chain: AADNLAIYKSFLGTS

Each binder was assayed against SHP2 C-SH2 domain E139D (assay: enrichment score (SH2-bound / input frequency) (ratio); bacterial display of known human phosphotyrosine sites (pTyr-Var adds point mutants) read by sequencing; higher = stronger binding; tyrosines were phosphorylated by kinases first). Conditions: peptide library: Human pTyr.
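Also: displayed peptides selected on beads carrying the immobilized SH2 domain, with library peptides lacking any tyrosine serving as negative controls.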

Enrichment score, inactive:
B1 1.42, B2 0.748, B3 0.616, B4 0.991, B5 1.3, B6 0.511, B7 0.679, B8 0.753, B9 2.1, B10 1.3, B11 1.99, B12 0.917, B13 1.13, B14 1.15, B15 1.02, B16 0.935, B17 0.469, B18 0.699

The binders below were run against SHP2 C-SH2 domain wild-type in the same assay as above. Conditions: peptide library: Human pTyr.

Enrichment score, inactive:
B1 1.08, B2 0.702, B3 0.451, B4 1.06, B5 1.09, B6 0.461, B7 0.694, B8 0.836, B9 1.62, B10 1.06, B11 1.43, B12 0.927, B13 1.28, B14 0.804, B15 0.759, B16 1.18, B17 0.5, B18 0.657

The binders below were run against SHP2 N-SH2 domain L43F in the same assay as above. Conditions: peptide library: Human pTyr.

Enrichment score, inactive:
B1 1.09, B2 0.734, B3 0.458, B4 1.15, B5 1.29, B6 0.636, B7 0.761, B8 0.578, B9 1.5, B10 0.985, B11 1.23, B12 0.895, B13 1.28, B14 1.13, B15 0.973, B16 0.664, B17 0.63, B18 0.664

What follows are binders tested against SHP2 N-SH2 domain T42A in the same assay as above. Conditions: peptide library: Human pTyr.

Enrichment score, inactive:
B1 1.1, B2 0.786, B3 1.26, B4 0.979, B5 1.15, B6 0.514, B7 0.61, B8 0.657, B9 1.3, B10 1.11, B11 1.28, B12 0.931, B13 1.33, B14 0.934, B15 0.881, B16 0.484, B17 0.531, B18 0.635

Each binder was assayed against SHP2 N-SH2 domain T52S in the same assay as above. Conditions: peptide library: Human pTyr.

Enrichment score, inactive:
B1 1.3, B2 0.691, B3 0.595, B4 0.798, B5 1.15, B6 0.683, B7 0.743, B8 0.935, B9 1.55, B10 1.06, B11 1.63, B12 1.02, B13 1.41, B14 0.946, B15 1.06, B16 0.536, B17 0.604, B18 0.658

These binders were tested against SHP2 N-SH2 domain wild-type in the same assay as above. Conditions: peptide library: Human pTyr.

Enrichment score, inactive:
B1 1.28, B2 0.821, B3 0.548, B4 1.38, B5 1.19, B6 0.667, B7 0.626, B8 0.912, B9 2.21, B10 1.11, B11 1.49, B12 0.972, B13 1.36, B14 1.09, B15 0.84, B16 0.701, B17 0.705, B18 0.803
